Out of some 320,000 compounds screened, about 9,100 (2.8%) were called active. The shares of active, inactive and inconclusive entries below differ from those in the screen. The call rests on the fitted dose curve; in most records, active means well fitted activation curve with a large enough effect; inconclusive means small, poorly fitted or top-dose-only effect; inactive means no such curve, though single readings can be large or run the other way. Potencies of inconclusive entries are left out as doubtful fits.
Assay: qHTS Assay for Rab9 Promoter Activators; further: nearly all actives have a fitted effect of over 60% in size
Conditions: Huh7 Rab9 promoter-luciferase reporter, luminescence, 24 h; series mostly up to 9.22 µM
Procedure, shortened: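 Quantitative HTS format; Huh7 Rab9-luciferase reporter cells (1500/well) receive compound 2 h post-plating, incubate 24 h at 37 °C, then get luciferase reagent for 10 min before luminescence reading.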
Potency means the concentration at half of the fitted maximal effect; tags describe the fitted curve by direction and shape.

SMILES	Potency
Cc1ccc(Nc2ccc(NCc3ccccc3)nn2)cc1C	inactive
COc1ccc2cc(-c3[nH]ncc3CN3CCCCO3)ccc2c1	inconclusive [activator, partial curve]
N#Cc1c(NC(=O)C2CC2)sc2c1CCCCC2	inconclusive [activator, single point]
O=C1c2ccccc2-c2nnc(-c3ccc(O)cc3)cc21	active: 0.501 µM
c1ccc2c(c1)nnn2-c1ncnc2sccc12	inconclusive [activator, partial curve]
CCCNC(=O)Nc1cc(C)on1	inactive
Cc1ccc(-n2ncc(Cl)c2C(=O)NCc2ccccc2)cc1	inconclusive [activator, single point]
COc1ccc(S(=O)(=O)N2CCCC(C(=O)Nc3ccc(NC(=O)c4ccccn4)cc3)C2)cc1 (centres undefined)	inconclusive [activator, partial curve]
CN(c1ccccc1)c1ccc(/C=N/N2CCOCC2)cc1	active: 1.26 µM
c1coc(-c2nnc(NC3=NCCC3)o2)c1	active: 3.55 µM
CN(C1=NS(=O)(=O)c2ccccc21)c1ccc(OC(=O)c2ccccc2)cc1	inactive
COc1cccc(-c2ccnc3[nH]n(-c4ccccc4)c(=O)c23)c1	inconclusive [activator, partial curve]
CCCNC(=O)OC[C@H]1O[C@H](CCO/N=C(\C)CCN2CCc3nc(-c4ccccc4)c(-c4ccccc4)cc3C2)C=C[C@@H]1Oc1ccc(OC)cc1	inactive
CC(C)(C)c1ccc(C(=O)Nc2ccc([N+](=O)[O-])cn2)cc1	active: 1 µM
COCCOC(=O)c1[nH]c2c(c1C)C(=O)C(C(=O)OC)C(C)C2 (centres undefined)	active: 3.55 µM
Cc1ccc(-n2nnc(-c3cc4ccccc4n3C)n2)cc1	active: 1.58 µM
N/C(=N\OC(=O)Nc1ccccc1)c1ncc(C(F)(F)F)cc1Cl	inconclusive [activator, single point]
Cc1cc(C(=O)N/N=C/c2ccc(N3CCOCC3)cc2)c(C)o1	inconclusive [activator, single point]
Cc1cc(C)c2cc(CN(CCN3CCCC3)C(=O)Nc3ccc(F)cc3)c(=O)[nH]c2c1	inactive
CCOc1ccc(-c2nnc(N)s2)cc1	inconclusive [activator, partial curve]
Cc1[nH]n(-c2nc(-c3cccc([N+](=O)[O-])c3)cs2)c(=O)c1C	inconclusive [activator, single point]
CC(Cc1ccco1)NC(=O)c1cccc(S(=O)(=O)N(C)C)c1 (centres undefined)	inconclusive [activator, single point]
Cc1ccc(/C=N/NC(=S)NC2CCCCC2)o1	inconclusive [activator, partial curve]
O=C1c2ccccc2NC(c2ccc(O)cc2)N1c1ccccc1 (centres undefined)	inconclusive [activator, partial curve]
O=C(Nc1cccc(C(F)(F)F)c1)C(SCCO)c1ccccc1 (centres undefined)	inactive
CCOC(=O)CC(NC(=O)Cc1cccs1)c1ccccc1Cl (centres undefined)	inactive
Cc1ccc2nc(-c3ccc(NC(=O)COC(=O)c4cncc(Br)c4)cc3)sc2c1	active: 0.316 µM

SMILES	Potency
O=C1CN(c2ccccc2)C(=S)N1C(=O)c1ccccc1	active: 3.98 µM
CSc1ccc(-c2nnn(Cc3ccc(C)cc3)n2)cc1	inconclusive [activator, partial curve]
CC(=O)NC(CSC(CC(=O)c1ccco1)c1ccc(C)cc1)C(=O)O (centres undefined)	inconclusive [activator, single point]
Cc1ccnc(NC(=O)c2oc3ccccc3c2C)c1	active: 2.51 µM
O=C(N/N=C/c1ccc([N+](=O)[O-])cc1)c1[nH]ncc1Br	active: 1 µM
CCOC(=O)CSc1ncnc2c1c(-c1ccccc1)cn2-c1ccc(OC)cc1	inactive
CCOC(=O)N/N=C/c1cn(CCCOc2ccccc2)c2ccccc12	inconclusive [activator, partial curve]
CCc1cc2c(=O)c(-c3ccc4c(c3)OCCO4)coc2c(CN2CCCCC2C)c1O (centres undefined)	inactive
COc1ccc(OCC(=O)Nc2ccccc2C(=O)NC2CC2)cc1	inactive
CCSc1nnc2nc3[nH]c4c(C)cccc4c3nn12	inconclusive [activator, partial curve]
COc1ccccc1-c1cnn2c(NC3CCCC3)cc(C)nc12	active: 2.82 µM
COc1ccc(CC(=O)Nc2nnc(C(C)(C)C)s2)cc1OC	inactive
O=[N+]([O-])c1ccc(Cl)c(NC(=S)N2CCCC2)c1	inconclusive [activator, single point]
O=C(COc1ccc(Cl)cc1Cl)c1ccc[nH]1	inconclusive [activator, single point]
COc1ccc(-n2nc(C(=O)NCC(=O)N3CCN(c4ccccn4)CC3)c3ccccc3c2=O)cc1	inconclusive [activator, partial curve]
On1c(-c2ccccc2)nc2ccc(Cl)cc21	inconclusive [activator, partial curve]
COc1cccc(-c2nc3sc4c(c3c(=O)[nH]2)CCCCC4)c1	inconclusive [activator, full curve]
COc1ccccc1NC(=O)Nc1cccc(C(=O)O)c1	inconclusive [activator, single point]
CC1=NN(c2nc(-c3ccc(C)cc3)cs2)C(=O)C1N=Nc1cccc(C)c1 (centres undefined)	inconclusive [activator, partial curve]
O=C(Nc1cc(Br)ccc1O)c1cc(-c2ccc3c(c2)OCO3)on1	inconclusive [activator, partial curve]
COc1cccc(-c2nc(-c3ccccn3)no2)c1OC	active: 2.51 µM
CNC(=O)c1csc(-c2ccc(C)cc2)n1	inconclusive [activator, single point]
COC(=O)CC1COc2ccccc2N1S(=O)(=O)c1ccc(Br)cc1 (centres undefined)	inactive
O=C(Nc1nc(=O)n(C(=O)C2CC2)s1)c1ccccc1	inactive
O=C(N/N=C/C(Br)=C/c1ccccc1)c1cccs1	active: 0.891 µM
COc1nc(-c2ccc(Cl)cc2Cl)nc2ccccc12	inactive
C/C(=N/Nc1nc(C)c(C)s1)c1cccc([N+](=O)[O-])c1	inconclusive [activator, partial curve]

SMILES	Potency
Oc1ccc(Nc2nc(-c3cccs3)cs2)cc1	inactive
CCOC(=O)c1ccc(NC(=O)c2cnccn2)cc1	inconclusive [activator, single point]
c1ccc(N2CCN(c3nc4cc5c(cc4s3)OCO5)CC2)cc1	active: 0.708 µM
C(#CC1CCCCC1)c1ccc2c(c1)COc1c3ccccc3nn1-2	inconclusive [activator, single point]
Cc1ccc(-c2nn(-c3ccccc3)cc2/C=N/n2c(-c3cccs3)n[nH]c2=S)cc1	inactive
O=C(NCc1cc(F)ccc1F)C1CCC(=O)N(C2CCCCCC2)C1 (centres undefined)	inconclusive [activator, single point]
N#Cc1nc(Cc2ccccc2)oc1NCCc1ccccc1	active: 3.16 µM
Cc1cc(NC(=O)c2ccc(F)cc2)ccc1NC(=O)c1ccco1	inconclusive [activator, single point]
Fc1cccc2sc(Nc3nc4ccccc4s3)nc12	inconclusive [activator, single point]
COc1ccc(NC(=O)C(=S)NC2CCCCC2)cc1	active: 2.82 µM
CCOC(=O)c1nn(-c2ccc(Cl)cc2)cc1O	inconclusive [activator, single point]
C=CCNC(=O)c1cc(-c2ccccc2O)on1	inconclusive [activator, single point]
CCc1ccc(NC(=O)N2CCCCCC2)cc1	active: 1.78 µM
Cc1cc(O)ccc1Nc1nc(-c2cccs2)cs1	inconclusive [activator, single point]
O=C(/C=C/c1ccc(Cl)cc1Cl)N1CCN(c2ccccc2[N+](=O)[O-])CC1	inactive
COc1ccccc1-c1nc(SCC(=O)N2CCC(C(N)=O)CC2)n[nH]1	inconclusive [activator, single point]
NS(=O)(=O)c1ccc(NC(=O)Nc2cccc3ccccc23)cc1	inactive
CC(=O)Nc1nc2ccc(NC(=O)c3ccco3)cc2s1	inconclusive [activator, partial curve]
COc1cccc(NC(=O)Nc2nc(SC)ns2)c1	active: 1.41 µM
COc1cc(C(=O)N(C)CC2CCN(CCc3cccc(C(F)(F)F)c3)CC2)ccc1C	inactive
Oc1ccc(C2Nc3cccc4cccc(c34)N2)c(O)c1	inconclusive [activator, partial curve]
CC1CCc2sc(-c3n[nH]c(=S)o3)cc2C1 (centres undefined)	inconclusive [activator, single point]
O=C(Nc1nc2c(s1)CN(Cc1ccccc1)CC2)c1c(F)cccc1F	inconclusive [activator, single point]
CCCNC(=O)COC(=O)c1cc(C)nc2ccccc12	inactive
COc1ccc(-n2nc(C(=O)NCC(=O)N3CCN(C)CC3)c3ccccc3c2=O)cc1OC	inactive

From PubChem BioAssay AID485297 (National Center for Advancing Translational Sciences (NCATS), 2010)
